According to US9593149B2, “Amylin and calcitonin receptor agonist” (Novo Nordisk A/S, priority 2014, dated 2017):
At least one compound was matched to its structure with a doubt left. Numbered stars: 1 amine (or outer) side, 2 acyl side, 3 side chain; on linkers, the order of the positions; unused ones are H or OH. Peptide text beside a SMILES is read from it. * marks the point of attachment. C20 diacid = O=C(O)CCCCCCCCCCCCCCCCCCC(=O)*; C18 diacid = O=C(O)CCCCCCCCCCCCCCCCC(=O)*; γGlu = O=C(O)[C@H](CCC(=O)[*:2])N[*:1]

Assay: Assay (III) ThT fibrillation, physical stability
Format: physicochemical
Conditions: pH 7.5, 37° C., shaking

## CC(C)C[C@H](NC(=O)CNC(=O)[C@H](CO)NC(=O)[C@H](C)NC(=O)CC[C@H](NC(=O)CCCCCCCCCCCCCCCCCCC(=O)O)C(=O)O)C(=O)N[C@@H](CO)C(=O)N[C@H](C(=O)N[C@@H](C)C(=O)N[C@H](C(=O)N[C@@H](CC(C)C)C(=O)NCC(=O)N[C@@H](CCCNC(=N)N)C(=O)N[C@@H](CC(C)C)C(=O)N[C@@H](CO)C(=O)N[C@@H](C)C(=O)N[C@@H](CCC(=O)O)C(=O)N[C@@H](CC(C)C)C(=O)N[C@@H](Cc1c[nH]cn1)C(=O)N[C@@H](CCC(=O)O)C(=O)N[C@@H](CC(C)C)C(=O)N[C@@H](C)C(=O)N[C@H](C(=O)N[C@@H](Cc1ccc(O)cc1)C(=O)N1CCC[C@H]1C(=O)N[C@@H](CCCNC(=N)N)C(=O)N[C@H](C(=O)N[C@@H](CCC(=O)O)C(=O)N[C@H](C(=O)NCC(=O)N[C@@H](CO)C(=O)NCC(=O)N[C@H](C(=O)N[C@@H](Cc1ccc(O)cc1)C(N)=O)[C@@H](C)O)[C@@H](C)O)[C@@H](C)O)[C@@H](C)O)C(C)C)[C@@H](C)O [compound 104, [N-terminal(C20 diacid-gGlu), des1, 4G, 9V, 23Y, 30S, 31G, 32T, 33Y]mimylin] ({C20 diacid-γGlu}-ASGLSTAVLGRLSAELHELATYPRTETGSGTY-NH2)
  ThT pH 7.5 lag time (h): >45 h

## CC(C)C[C@H](NC(=O)CNC(=O)[C@H](CO)NC(=O)[C@H](C)NC(=O)CC[C@H](NC(=O)CCCCCCCCCCCCCCCCCCC(=O)O)C(=O)O)C(=O)N[C@@H](CO)C(=O)N[C@H](C(=O)N[C@@H](C)C(=O)N[C@@H](C)C(=O)N[C@@H](CC(C)C)C(=O)NCC(=O)N[C@@H](CCCNC(=N)N)C(=O)N[C@@H](CC(C)C)C(=O)N[C@@H](CO)C(=O)N[C@@H](CCC(N)=O)C(=O)N[C@@H](CCC(=O)O)C(=O)N[C@@H](CC(C)C)C(=O)N[C@@H](Cc1c[nH]cn1)C(=O)N[C@@H](CCC(=O)O)C(=O)N[C@@H](CC(C)C)C(=O)N[C@@H](CCC(=O)O)C(=O)N[C@H](C(=O)N[C@@H](Cc1ccc(O)cc1)C(=O)N1CCC[C@H]1C(=O)N[C@@H](CCCNC(=N)N)C(=O)N[C@H](C(=O)N[C@@H](CCC(=O)O)C(=O)N[C@H](C(=O)NCC(=O)N[C@@H](CO)C(=O)NCC(=O)N[C@H](C(=O)N[C@@H](Cc1ccc(O)cc1)C(N)=O)[C@@H](C)O)[C@@H](C)O)[C@@H](C)O)[C@@H](C)O)[C@@H](C)O [compound 108, [N-terminal(C20 diacid-gGlu), des1, 4G, 15Q, 21E, 23Y, 30S, 31G, 32T, 33Y]mimylin] ({C20 diacid-γGlu}-ASGLSTAALGRLSQELHELETYPRTETGSGTY-NH2)
  ThT pH 7.5 lag time (h): >45 h

## CC(C)C[C@H](NC(=O)CNC(=O)[C@H](CO)NC(=O)[C@H](C)NC(=O)CC[C@H](NC(=O)CCCCCCCCCCCCCCCCCCC(=O)O)C(=O)O)C(=O)N[C@@H](CO)C(=O)N[C@H](C(=O)N[C@@H](C)C(=O)N[C@@H](C)C(=O)N[C@@H](CC(C)C)C(=O)NCC(=O)N[C@@H](CCCNC(=N)N)C(=O)N[C@@H](CC(C)C)C(=O)N[C@@H](CO)C(=O)N[C@@H](CCC(N)=O)C(=O)N[C@@H](CCC(=O)O)C(=O)N[C@@H](CC(C)C)C(=O)N[C@@H](Cc1c[nH]cn1)C(=O)N[C@@H](CCC(=O)O)C(=O)N[C@@H](CC(C)C)C(=O)N[C@@H](CCC(N)=O)C(=O)N[C@H](C(=O)N[C@@H](Cc1ccc(O)cc1)C(=O)N1CCC[C@H]1C(=O)N[C@@H](CCCNC(=N)N)C(=O)N[C@H](C(=O)N[C@@H](CCC(=O)O)C(=O)N[C@H](C(=O)NCC(=O)N[C@@H](CO)C(=O)N[C@@H](CCC(N)=O)C(=O)N[C@H](C(=O)N[C@@H](Cc1ccc(O)cc1)C(N)=O)[C@@H](C)O)[C@@H](C)O)[C@@H](C)O)[C@@H](C)O)[C@@H](C)O [compound 109, [N-terminal(C20 diacid-gGlu), des1, 4G, 15Q, 21Q, 23Y, 30S, 31Q, 32T, 33Y]mimylin] ({C20 diacid-γGlu}-ASGLSTAALGRLSQELHELQTYPRTETGSQTY-NH2)
  ThT pH 7.5 lag time (h): >45 h

## CC(C)C[C@H](NC(=O)CNC(=O)[C@H](CO)NC(=O)[C@H](C)NC(=O)CC[C@H](NC(=O)CCCCCCCCCCCCCCCCC(=O)O)C(=O)O)C(=O)N[C@@H](CO)C(=O)N[C@H](C(=O)N[C@@H](C)C(=O)N[C@@H](C)C(=O)N[C@@H](CC(C)C)C(=O)NCC(=O)N[C@@H](CCCNC(=N)N)C(=O)N[C@@H](CC(C)C)C(=O)N[C@@H](CO)C(=O)N[C@@H](CCC(N)=O)C(=O)N[C@@H](CCC(=O)O)C(=O)N[C@@H](CC(C)C)C(=O)N[C@@H](Cc1c[nH]cn1)C(=O)N[C@@H](CCC(=O)O)C(=O)N[C@@H](CC(C)C)C(=O)N[C@@H](CCC(N)=O)C(=O)N[C@H](C(=O)N[C@@H](Cc1ccc(O)cc1)C(=O)N1CCC[C@H]1C(=O)N[C@@H](CCCNC(=N)N)C(=O)N[C@H](C(=O)N[C@@H](CCC(=O)O)C(=O)N[C@H](C(=O)NCC(=O)N[C@@H](CO)C(=O)NCC(=O)N[C@H](C(=O)N[C@@H](Cc1ccc(O)cc1)C(N)=O)[C@@H](C)O)[C@@H](C)O)[C@@H](C)O)[C@@H](C)O)[C@@H](C)O [compound 110, [N-terminal(C18 diacid-gGlu), des1, 4G, 15Q, 21Q, 23Y, 30S, 31G, 32T, 33Y]mimylin] ({C18 diacid-γGlu}-ASGLSTAALGRLSQELHELQTYPRTETGSGTY-NH2)
  ThT pH 7.5 lag time (h): >45 h

## CC(C)C[C@H](NC(=O)CNC(=O)[C@H](CO)NC(=O)[C@H](C)NC(=O)CC[C@H](NC(=O)CCCCCCCCCCCCCCCCCCC(=O)O)C(=O)O)C(=O)N[C@@H](CO)C(=O)N[C@H](C(=O)N[C@@H](C)C(=O)N[C@H](C(=O)N[C@@H](CC(C)C)C(=O)NCC(=O)N[C@@H](CCCNC(=N)N)C(=O)N[C@@H](CC(C)C)C(=O)N[C@@H](CO)C(=O)N[C@@H](CCC(N)=O)C(=O)N[C@@H](CCC(=O)O)C(=O)N[C@@H](CC(C)C)C(=O)N[C@@H](Cc1c[nH]cn1)C(=O)N[C@@H](CCC(=O)O)C(=O)N[C@@H](CC(C)C)C(=O)N[C@@H](CCC(N)=O)C(=O)N[C@H](C(=O)N[C@@H](Cc1ccc(O)cc1)C(=O)N1CCC[C@H]1C(=O)N[C@@H](CCCNC(=N)N)C(=O)N[C@H](C(=O)N[C@@H](CCC(=O)O)C(=O)N[C@H](C(=O)NCC(=O)N[C@@H](CO)C(=O)NCC(=O)N[C@H](C(=O)N[C@@H](Cc1ccc(O)cc1)C(N)=O)[C@@H](C)O)[C@@H](C)O)[C@@H](C)O)[C@@H](C)O)C(C)C)[C@@H](C)O [compound 118, [N-terminal(C20 diacid-gGlu), des1, 4G, 9V, 15Q, 21Q, 23Y, 30S, 31G, 32T, 33Y]mimylin]
  ThT pH 7.5 lag time (h): 0 h

## CC(C)C[C@H](NC(=O)CNC(=O)[C@H](CO)NC(=O)[C@H](C)NC(=O)COCCOCCNC(=O)COCCOCCNC(=O)CC[C@H](NC(=O)CCCCCCCCCCCCCCCCCCC(=O)O)C(=O)O)C(=O)N[C@@H](CO)C(=O)N[C@H](C(=O)N[C@@H](C)C(=O)N[C@H](C(=O)N[C@@H](CC(C)C)C(=O)NCC(=O)N[C@@H](CCCNC(=N)N)C(=O)N[C@@H](CC(C)C)C(=O)N[C@@H](CO)C(=O)N[C@@H](CCC(N)=O)C(=O)N[C@@H](CCC(=O)O)C(=O)N[C@@H](CC(C)C)C(=O)N[C@@H](Cc1c[nH]cn1)C(=O)N[C@@H](CCC(=O)O)C(=O)N[C@@H](CC(C)C)C(=O)N[C@@H](CCC(N)=O)C(=O)N[C@H](C(=O)N[C@@H](Cc1ccc(O)cc1)C(=O)N1CCC[C@H]1C(=O)N[C@@H](CCCNC(=N)N)C(=O)N[C@H](C(=O)N[C@@H](CCC(=O)O)C(=O)N[C@H](C(=O)NCC(=O)N[C@@H](CO)C(=O)NCC(=O)N[C@H](C(=O)N[C@@H](Cc1ccc(O)cc1)C(N)=O)[C@@H](C)O)[C@@H](C)O)[C@@H](C)O)[C@@H](C)O)C(C)C)[C@@H](C)O [compound 120, [N-terminal(C20 diacid-gGlu-2xOEG), des1, 4G, 9V, 15Q, 21Q, 23Y, 30S, 31G, 32T, 33Y]mimylin]
  ThT pH 7.5 lag time (h): >45 h

## CC(C)C[C@H](NC(=O)CNC(=O)[C@H](CO)NC(=O)[C@H](C)NC(=O)CC[C@H](NC(=O)CCCCCCCCCCCCCCCCCCC(=O)O)C(=O)O)C(=O)N[C@@H](CO)C(=O)N[C@H](C(=O)N[C@@H](C)C(=O)N[C@H](C(=O)N[C@@H](CC(C)C)C(=O)NCC(=O)N[C@@H](CCCNC(=N)N)C(=O)N[C@@H](CC(C)C)C(=O)N[C@@H](CO)C(=O)N[C@@H](CCC(N)=O)C(=O)N[C@@H](CCC(=O)O)C(=O)N[C@@H](CC(C)C)C(=O)N[C@@H](Cc1c[nH]cn1)C(=O)N[C@@H](CCC(=O)O)C(=O)N[C@@H](CC(C)C)C(=O)N[C@@H](CCC(N)=O)C(=O)N[C@H](C(=O)N[C@@H](Cc1ccc(O)cc1)C(=O)N1CCC[C@H]1C(=O)N1CCC[C@H]1C(=O)N[C@H](C(=O)N[C@@H](CCC(=O)O)C(=O)N[C@H](C(=O)NCC(=O)N[C@@H](CO)C(=O)N[C@@H](CCC(N)=O)C(=O)N[C@H](C(=O)N[C@@H](Cc1ccc(O)cc1)C(N)=O)[C@@H](C)O)[C@@H](C)O)[C@@H](C)O)[C@@H](C)O)C(C)C)[C@@H](C)O [compound 125, [N-terminal(C20 diacid-gGlu), des1, 4G, 9V, 15Q, 21Q, 23Y, 25P, 30S, 31Q, 32T, 33Y]mimylin] ({C20 diacid-γGlu}-ASGLSTAVLGRLSQELHELQTYPPTETGSQTY-NH2)
  ThT pH 7.5 lag time (h): >45 h

## CC(C)C[C@H](NC(=O)CC[C@H](NC(=O)CCCCCCCCCCCCCCCCCCC(=O)O)C(=O)O)C(=O)N[C@@H](CO)C(=O)NCC(=O)N[C@@H](CC(C)C)C(=O)N[C@@H](CO)C(=O)N[C@H](C(=O)N[C@@H](C)C(=O)N[C@H](C(=O)N[C@@H](CC(C)C)C(=O)NCC(=O)N[C@@H](CCCNC(=N)N)C(=O)N[C@@H](CC(C)C)C(=O)N[C@@H](CO)C(=O)N[C@@H](CCC(N)=O)C(=O)N[C@@H](CCC(=O)O)C(=O)N[C@@H](CC(C)C)C(=O)N[C@@H](Cc1c[nH]cn1)C(=O)N[C@@H](CCC(=O)O)C(=O)N[C@@H](CC(C)C)C(=O)N[C@@H](CCC(N)=O)C(=O)N[C@H](C(=O)N[C@@H](Cc1ccc(O)cc1)C(=O)N1CCC[C@H]1C(=O)N[C@@H](CCCNC(=N)N)C(=O)N[C@H](C(=O)N[C@@H](CCC(=O)O)C(=O)N[C@H](C(=O)NCC(=O)N[C@@H](CO)C(=O)N[C@@H](CCC(N)=O)C(=O)N[C@H](C(=O)N[C@@H](Cc1ccc(O)cc1)C(N)=O)[C@@H](C)O)[C@@H](C)O)[C@@H](C)O)[C@@H](C)O)C(C)C)[C@@H](C)O [compound 127, [N-terminal(C20 diacid-gGlu), des1, 2L, 4G, 9V, 15Q, 21Q, 23Y, 30S, 31Q, 32T, 33Y]mimylin] ({C20 diacid-γGlu}-LSGLSTAVLGRLSQELHELQTYPRTETGSQTY-NH2)
  ThT pH 7.5 lag time (h): >45 h
